77 variants from a collection of fitness landscapes (doi:10.1016/j.celrep.2020.107928) can be followed below.

First the molecules themselves.
B1: Caulobacter ParB omega fusion; a variant is named by its letters at X, in order, B8GW30 (parent)
chain: MESVVVGEPGMSEGRRGLGRGLSALLGEVDAAPAQAPGEQLGGSREAPIEILQRNPDQPRRTFREEDLEDLSNSIREKGVLQPILVRPSPDTAGEYQIVAGERAWRAAQRAGLKTVPIMVRELDDLAVLEIGIIENVQRADLNVLEEALSYKVLMEKFERTQENIAQTIGKSXSHVANXMRLLXLPDEVQSYLVSGELTAXHARAIAAAADPVALAKQIIEGGLSVRETEALARKAPNLSAGKSKGGRPPRVKDTDTQALESDLSSVLGLDVSIDHRGSTGTLTITYATLEQLDDLCNRLTRGI

Whole data set: some 81,000 sequences, median “one-hybrid fitness for binding NBS DNA” near -0.1, cut for the highest 2% near 0.36. The list shows a part of the results. Bounds are passed on as bounds.

In this assay the parent is B1. In words: one-hybrid fitness for binding NBS DNA (the Noc-binding site; scaled: cognate 1, non-cognate 0); higher = stronger binding. The note with it: with NBS DNA site. Put shortly: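 Values were rescaled so that cognate is 1 and non-cognate is 0. Each is a fitness, the log change in a variant's read ratio to wild type from Illumina reads of plasmids before and after selection, with three replicate libraries pooled and variants under 10 reads dropped. Selection of the Caulobacter ParB libraries, four specificity codons randomised, used E. coli USO with a HIS3 reporter, site 19 bp from the promoter, on M9-minus-histidine with 0.1 mM IPTG and 5 mM 3-AT for 48 hours at 37°C.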
In the case of YAMY, the “one-hybrid fitness for binding NBS DNA” value was at most 0.2. As for GMSK, the figure is at most 0.2; as for YYKA, at most 0.2; as for RNHA, at most 0.2. For TTRE the value was at most 0.2. For NRLR the value was at most 0.2; for WHTW, at most 0.2.

In the case of VINT, the “one-hybrid fitness for binding NBS DNA” value was at most 0.2. Take YDMG: the “one-hybrid fitness for binding NBS DNA” value is at most 0.2. As for SVNR, the figure is at most 0.2; as for TINR, at most 0.2; as for SAID, at most 0.2. As for PWHV, the figure is at most 0.2. For LWGS the value was at most 0.2. In the case of MVDG, the “one-hybrid fitness for binding NBS DNA” value was at most 0.2. As for RRND, the figure is at most 0.2; as for RSKD, at most 0.2; as for RVAA, at most 0.2. Take LLIR: the “one-hybrid fitness for binding NBS DNA” value was at most 0.2.

For the variant LSRT, the “one-hybrid fitness for binding NBS DNA” value is at most 0.2. Turning to TSNC, the “one-hybrid fitness for binding NBS DNA” value was at most 0.2.

Take DMNV: the “one-hybrid fitness for binding NBS DNA” value was at most 0.2. On to EFTR, for which the “one-hybrid fitness for binding NBS DNA” value came to 0.24. For LQYA the value was at most 0.2; for TCMD, at most 0.2; for LYSG, at most 0.2.

For the variant RENT, the “one-hybrid fitness for binding NBS DNA” value is at most 0.2. As for KAWR, the figure is at most 0.2. Take TLWW: the “one-hybrid fitness for binding NBS DNA” value is at most 0.2. As for RVNQ, the figure is at most 0.2; as for LLCG, at most 0.2.

SESM: the “one-hybrid fitness for binding NBS DNA” value is at most 0.2. As for GLCR, the figure is at most 0.2; as for CWHS, at most 0.2. As for LALC, the “one-hybrid fitness for binding NBS DNA” value was at most 0.2.

In the case of FGDG, the “one-hybrid fitness for binding NBS DNA” value was at most 0.2.

For the variant YKCE, the “one-hybrid fitness for binding NBS DNA” value is at most 0.2. As for RLIH, the figure is at most 0.2. As for QTGT, the figure is 0.64. As for KFVR, the figure is at most 0.2. With AQSM, the “one-hybrid fitness for binding NBS DNA” value is at most 0.2. QYMV: the “one-hybrid fitness for binding NBS DNA” value was at most 0.2. As for VNRP, the figure is at most 0.2; as for ETAI, at most 0.2; as for TNAN, at most 0.2.

For SNDD, the “one-hybrid fitness for binding NBS DNA” value was at most 0.2. For QSNE the value was at most 0.2.

For MTQH, the “one-hybrid fitness for binding NBS DNA” value was at most 0.2. On to AHKT, for which the “one-hybrid fitness for binding NBS DNA” value is at most 0.2. GMCA: the “one-hybrid fitness for binding NBS DNA” value is at most 0.2. As for YQDG, the figure is at most 0.2; as for VGDA, at most 0.2; as for FLKC, at most 0.2. For NMKR the value was 0.201. Take NHLG: the “one-hybrid fitness for binding NBS DNA” value is at most 0.2.

On to NYAM, for which the “one-hybrid fitness for binding NBS DNA” value is at most 0.2.

In the case of ASFG, the “one-hybrid fitness for binding NBS DNA” value was at most 0.2. For KFFY the value was at most 0.2. With CKLR, the “one-hybrid fitness for binding NBS DNA” value is at most 0.2. Regarding PSFP, the “one-hybrid fitness for binding NBS DNA” value was at most 0.2.

For ALLH, the “one-hybrid fitness for binding NBS DNA” value was at most 0.2. For the variant QQWF, the “one-hybrid fitness for binding NBS DNA” value was at most 0.2. As for TRPW, the figure is at most 0.2; as for YESG, at most 0.2.

Turning to VTIT, the “one-hybrid fitness for binding NBS DNA” value was at most 0.2. As for RKVF, the “one-hybrid fitness for binding NBS DNA” value was at most 0.2. As for PCCR, the “one-hybrid fitness for binding NBS DNA” value was at most 0.2. ADTF: the “one-hybrid fitness for binding NBS DNA” value is at most 0.2. As for AIRF, the figure is at most 0.2; as for DAWR, at most 0.2; as for ARMY, at most 0.2. Turning to NLEG, the “one-hybrid fitness for binding NBS DNA” value was at most 0.2.

With MIVV, the “one-hybrid fitness for binding NBS DNA” value was at most 0.2. For QAHI the value was at most 0.2; for WRTR, at most 0.2. With SIST, the “one-hybrid fitness for binding NBS DNA” value is at most 0.2. On to QYCI, for which the “one-hybrid fitness for binding NBS DNA” value is at most 0.2.
